# According to PubChem BioAssay AID463173 (ICCB-Longwood Screening Facility, Harvard Medical School, 2010):
# Screen size: about 52,000 compounds; about 1,700 (3.3%) were called active. No stated cut-off is given here; in the data, active means survival mostly below about 52% (no sharp cut-off); inactive means mostly above about 56%. Some of the results follow.
# Tested on: Wild type
# Assay: growth inhibition of S. aureus wild type versus tarO mutant, primary screen, teichoic acid synthesis inhibitors, RN4220, OD600 (AID 463173)
# Conditions: S. aureus RN4220 wild type/DeltatarO growth, OD600, 18 h, active compounds read low, screened at 18.75 µg/mL (by protocol)
row,SMILES,survival
1,Cc1ccc(CNC(=O)c2nc(-c3ccc(Cl)cc3)n3c2CCCCC3)cc1,inactive: 68%
2,Cc1ccccc1C(=O)Nc1nnc(S(=O)(=O)N(C)Cc2ccc(Cl)cc2)s1,inactive: 99%
3,O=C(NCCSCc1ccccc1Cl)C1CCN(S(=O)(=O)Cc2ccccc2)CC1,inactive: 86%
4,COc1ccc(OCC(=O)Nc2ccc(O)c(-c3nc4ccccc4s3)c2)cc1,inactive: 60%
5,COc1ccc(-n2cccc2C=C(C#N)C#N)cc1,inactive: 116%
6,COc1ccc(CC(=O)N2CC(=O)Nc3ccc(Br)cc3C2c2ccc(F)cc2)cc1 (stereo not given),inactive: 64%
7,Cc1ccc(CN(C(=O)COc2ccc(C(C)C)cc2)C2CCS(=O)(=O)C2)o1 (stereo not given),inactive: 95%
8,CCCn1c(=O)c2sccc2n2c(CCCC(=O)Nc3ccccc3OCC)nnc12,inactive: 77%
9,Cc1cccc(NC(=O)c2sc3nc4c(cc3c2N)CN(Cc2ccccc2)CC4)c1,inactive: 92%
10,COc1ccccc1NC(=O)c1oc2ccccc2c1NC(=O)c1ccccc1C(F)(F)F,inactive: 90%
11,CN(C)CCC(=O)c1ccc2c(c1)OCO2,inactive: 98%
12,Brc1cccc(Nc2nc3nonc3nc2NCc2ccco2)c1,inactive: 34%
13,CCOc1ccccc1NC(=O)C(C)Sc1nc(-c2ccccc2)c(C#N)c(=O)[nH]1 (stereo not given),inactive: 84%
14,CCOc1ccc(/C=C/c2nc(C#N)c(NC(C)CC)o2)cc1 (stereo not given),inactive: 82%
15,CC(C)C(=O)N1CCC(CN=CC2=C(O)CC(C)(C)CC2=O)CC1,inactive: 103%
16,CCc1cccc(NC(=O)c2cnc(SC)nc2-c2ccccc2)c1,inactive: 91%
17,Cc1nc2sc(C(=O)Nc3ccc(F)cc3)c(N)c2c(-c2ccc(Br)cc2)c1C(=O)Nc1ccc(Cl)cc1,inactive: 88%
18,Cc1ccc(C)c(Cn2c(=O)n(Cc3ccc4c(c3)OCO4)c(=O)c3oc4ccccc4c32)c1,inactive: 89%
19,CCCCOc1ccc(C(=O)NCCc2sc(-c3cccc(F)c3)nc2C)cc1,inactive: 64%
20,O=C(Nc1ccc(NC(=O)c2cccs2)cc1)c1cccc(Br)c1,inactive: 120%
21,Cc1cc2nc(-c3ccc(OCc4ccc(F)cc4)cc3)cc(C(F)(F)F)n2n1,inactive: 59%
22,COC(=O)c1ccc(NC(=O)CC2C(=O)N(c3ccc(F)cc3)C(=O)N2Cc2ccc(OC)cc2)cc1 (stereo not given),inactive: 131%
23,COc1ccc(-c2cn3nc(N4CCC(C(=O)Nc5cccc(OC)c5)CC4)sc3n2)cc1,inactive: 110%
24,COc1ccc(N2CCN(S(=O)(=O)c3ccc(OC)c(-c4noc(C)n4)c3)CC2)cc1,inactive: 97%
25,O=C(Cn1ncc2c3ccccc3n(Cc3ccc(Cl)cc3)c2c1=O)NCc1cccs1,inactive: 89%
26,CCOc1ccc(Sc2cc(C(=O)NC(C)CC)c3ccccc3n2)cc1 (stereo not given),inactive: 135%
27,CCc1ccc(NC(=O)CSc2nccn2-c2cccc(C)c2C)cc1,inactive: 85%
28,CCc1ccc(NC(=O)c2ccc(F)c(S(=O)(=O)N(C)C3CCCCC3)c2)cc1,inactive: 71%

row,SMILES,survival
1,Cc1cc(NC(=O)CSc2nc3c([nH]c4ccccc43)c(=O)n2-c2ccccc2)no1,inactive: 64%
2,O=c1cc(-c2ccc(F)cc2)nc(SCc2nc(-c3cccc(Cl)c3)no2)[nH]1,inactive: 73%
3,O=C(C1CCCN(S(=O)(=O)c2ccc(Br)s2)C1)N1CCN(c2ccc(F)cc2)CC1 (stereo not given),inactive: 71%
4,COc1ccc(NC(=O)CSc2nc3ccncc3[nH]2)c(OC)c1,inactive: 75%
5,Cc1ccc(C2CC(=O)N(Cc3ccccc3)c3c2c(C)nn3-c2nc(C)cc(C)n2)cc1 (stereo not given),inactive: 82%
6,CC1CN(C(=O)N2CCC(C(=O)NCCC3=CCCCC3)CC2)c2cc(Cl)ccc2O1 (stereo not given),inactive: 86%
7,Cc1ccc2c(=O)cc(C(=O)Nc3sc4c(c3C(N)=O)CCCC4)oc2c1,inactive: 85%
8,Cc1ccc(Cl)cc1-n1ncc2c(NCCCn3ccnc3)ncnc21,inactive: 72%
9,O=C(C1CCN(S(=O)(=O)Cc2ccccc2)CC1)N1CCN(c2ccc(F)cc2)CC1,inactive: 83%
10,Cc1ccc(C)n1-c1c(C(=O)NCCCN2CCN(c3ccc(F)cc3)CC2)sc2ncccc12,inactive: 73%
11,Cc1ccc(C)c(CN2C(=O)C3(c4ccccc42)N(c2cccc(C(F)(F)F)c2)C(=O)CS3(=O)=O)c1 (stereo not given),inactive: 84%
12,COc1ccc(C2C(=O)N(C3CCCCC3)CC(=O)N2CCc2ccc(OC)c(OC)c2)cc1 (stereo not given),inactive: 76%
13,COc1cc(NC(=O)c2nc3ccccc3nc2C)cc(OC)c1OC,inactive: 71%
14,CCOC(=O)c1cc(C)n(CC2CCC(C(=O)Nc3ccc(OCC)cc3)CC2)c1C (stereo not given),inactive: 82%
15,Cc1ccc2oc(-c3cc(NC(=O)c4ccc5c(c4)OCCO5)cc(C)c3O)nc2c1,inactive: 79%
16,COc1ccc(NC(=O)CCn2nc(-c3ccccc3OC)c3c(C)cc(C)nc32)cc1,inactive: 100%
17,CCC(C(=O)N1CCN(c2ccccc2F)CC1)n1nc(C)c2sc3ccccc3c2c1=O (stereo not given),inactive: 71%
18,COc1cc(CN(C(=O)c2cccc(Cl)c2)c2ccccn2)cc(OC)c1OC,inactive: 81%
19,CC1=C(C(=O)OCC(C)C)C(c2ccc(OCc3ccccc3)cc2)N2C(=O)CCSC2=N1 (stereo not given),inactive: 82%
20,Cc1ccc(-n2nc(C(=O)Nc3ccc(Cl)cn3)c3c4ccccc4n(C)c3c2=O)cc1,inactive: 127%
21,Cc1ccccc1OCc1ccc(-c2nc(C#N)c(N3CCN(C)CC3)o2)o1,inactive: 87%
22,Cc1ccc(Cl)cc1N1CCN(C(=O)c2cccn3c(=O)c4cc(Cl)ccc4nc23)CC1,inactive: 71%
23,CCCc1nn2c(=O)cc(COc3ccc(/C=C(\C#N)C(=O)Nc4ccc(F)cc4)cc3)nc2s1,inactive: 95%
24,CCN(CC)C(=O)Cn1c(SCCOc2ccc(Cl)cc2)nc2ccccc21,inactive: 66%
25,COc1ccc(NC(=O)CSc2nc(-c3ccco3)cc(C(F)(F)F)n2)c(OC)c1,inactive: 65%
26,CCCCN(C)C(=O)C1CCC(CNS(=O)(=O)c2ccc3c(c2)CC(C)N3C(C)=O)CC1 (stereo not given),inactive: 99%
27,O=C(CCS(=O)(=O)c1cc2c(cc1Cl)NC(=O)CO2)NCCc1ccc(Cl)cc1,inactive: 116%
